Out of some 420,000 compounds screened, about 64,000 (15%) were called active. Inconclusive results, whose numbers are uncertain, are shown with a selection of clear calls. The call rests on the fitted dose curve; in most records, active means well fitted inhibition curve with a large enough effect; inconclusive means small, poorly fitted or top-dose-only effect; inactive means flat fitted curve, though single readings scatter. Potencies of inconclusive entries are left out as doubtful fits.
Assay: qHTS for Inhibitors of human tyrosyl-DNA phosphodiesterase 1 (TDP1): qHTS in cells in absence of CPT; further: nearly all actives have a fitted effect of over 55% in size
Conditions: DT40 Tdp1-/- hTDP1 cells, no CPT, ATP luminescence, 48 h; activity change, negative = growth inhibition: at 46.2 µM (top of the series)
Outline: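 Chicken DT40 Tdp1-/- cells stably complemented with human TDP1 were seeded at 400 cells/well with DMSO in place of 20 nM camptothecin. After compound pinning, cells grew at least 48 hr at 37 °C; viability read by CellTiter-Glo luminescence.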
On the % scale 0 is the no-effect control and ±100 the full control effect; potency means the concentration at half of the fitted maximal effect; tags describe the fitted curve by direction and shape.

SMILES | Potency | activity change, negative = growth inhibition
O=C(NCC(c1cccs1)N1CCOCC1)c1cnc(Cl)c(Cl)c1 (stereo unspecified) | inconclusive [inhibitor, single point] | 
COc1cccc(N2CCN(C(=O)CNC(=O)c3sc4ccccc4c3Cl)CC2)c1 | inconclusive [inhibitor, single point] | 
CCOC(=O)CSc1nc2c(sc3ccccc32)c(=O)n1CCCN1CCOCC1 | inconclusive [inhibitor, single point] | 
COc1ccc2c(CNC3CCCC3)c(C(=O)O)n(Cc3ccccc3C)c2c1 | inconclusive [inhibitor, single point] | 
O=C(O)c1cccc(Nc2ccc3nonc3c2[N+](=O)[O-])c1 | inactive | 
Cc1ccc(C)c(NC(=O)CCC(=O)N2CCOc3ccccc32)c1 | inactive | 
CC1CCc2nc(NC(=O)c3ccc(S(=O)(=O)N4CCCc5ccccc54)cc3)sc2C1 (stereo unspecified) | inactive | 
Cc1ccc(C(C(=O)NC2CCCC2)N(C(=O)Cc2cccs2)c2ccc3c(c2)OCCO3)cc1 (stereo unspecified) | inconclusive [inhibitor, single point] | 
O=[N+]([O-])c1cccc(-c2c(-c3ccccc3)ncc3ccc(F)cc23)c1 | active: 8.2 µM | 
Cc1cc(N2CCOCC2)nc(SCC(=O)c2ccc(Cl)cc2)n1 | inconclusive [inhibitor, single point] | 
CC(C)(C)C1CCc2nc(NC(=O)COc3ccccc3[N+](=O)[O-])sc2C1 (stereo unspecified) | inconclusive [inhibitor, partial curve] | 
C(=C\c1ccccc1)/CSc1nnc(-c2cccnc2)o1 | inactive | 
C[C@@H](CN1C(=O)C(=O)NC[C@@H]1Cc1ccc(O)cc1)NC(=O)Cc1ccccc1 | inactive | 
COc1cccc(N=Nc2ccc3cccnc3c2O)c1 | active: 1.16 µM | 
CN(C)CCCN(C(=O)c1cc2ccccc2oc1=O)c1nc2ccc(F)cc2s1 | inconclusive [inhibitor, partial curve, poor fit] | 
CC(/C=N/n1c(-c2n[nH]c3c2CCC3)n[nH]c1=S)=C\c1ccco1 | inactive | 
COc1cccc(C2SCC(=O)N2c2ccc(C)cc2)c1OC (stereo unspecified) | inconclusive [inhibitor, single point] | 
CCCN(CC(=O)Nc1ccccc1OC)C(=O)c1cc2ccccc2o1 | inactive | 
NS(=O)(=O)c1ccc(N2CCCCCC2)c([N+](=O)[O-])c1 | inconclusive [inhibitor, single point] | 
O=C(CN1C(=O)NC2(CCCCC2)C1=O)Nc1cc(C(F)(F)F)ccc1N1CCOCC1 | inconclusive [inhibitor, single point] | 
COc1ccc(C(=O)NNC(=O)c2cccc3ccccc23)cc1 | inactive | 
COc1ccccc1NC(=O)CCC(=O)OC(C)C(=O)c1ccccc1 (stereo unspecified) | inactive | 
COc1ccc(OC)c(NC(=O)CCNS(=O)(=O)c2ccc3c(c2)c(=O)n(C)c(=O)n3C)c1 | inactive | 
O=C(N/N=C/c1ccc(OC2CSC2)cc1)c1ccc(CN2CCOCC2)cc1 | inconclusive [inhibitor, partial curve, poor fit] | 

SMILES | Potency | activity change, negative = growth inhibition
COc1cccc(C(=O)C2CCCN(Cc3cn[nH]c3C3CCCCC3)C2)c1 (stereo unspecified) | inconclusive [inhibitor, single point] | 
CC(=O)c1cccc(NC(=O)C2Cc3c(-c4ccco4)ccnc3O2)c1 (stereo unspecified) | active: 16.4 µM | 
CC1=C(C(=O)N(C(C)C)C(C)C)CC(CC(=O)NCC2CCCCC2)C(=O)N1Cc1ccccc1 (stereo unspecified) | inconclusive [inhibitor, single point] | 
COC(=O)C1=C(C)N(CCc2ccc(OC)cc2)C(=O)C1 | inactive | 
CCOc1ccc(NS(=O)(=O)c2ccc(-c3coc(C)n3)cc2)cc1 | inconclusive [inhibitor, single point] | 
COc1cc2cc(CN(C(=O)NC3CCCCC3)C3CCCC3)c(=O)[nH]c2cc1OC | inconclusive [inhibitor, single point] | 
CCC(=O)Nc1ccc(S(=O)(=O)Nc2cccc(C)c2)cc1OC | active: 11.6 µM | 
CC(C)Cc1nc(N2CCN(C(=O)c3ccco3)CC2)c(C#N)c2c1CCCC2 | inconclusive [inhibitor, single point] | 
COc1cccc(-c2csc(N3CCN(C(=S)Nc4cccc(Cl)c4)CC3)n2)c1 | inactive | 
CCOc1ccccc1CN1CCNC(=O)C1CC(=O)NC1CCCCCC1 (stereo unspecified) | inconclusive [inhibitor, single point] | 
O=C(CCc1ccccc1)NNC(=S)NCc1ccc(Cl)cc1 | inactive | 
CCCn1c(NC(=O)CSCC(=O)Nc2cc(C)on2)nc2ccccc21 |  | inconclusive: -31% [inhibitor]
O=C(CNC(=S)N(Cc1ccccc1)Cc1cccnc1)NC1CCCCC1 | inconclusive [inhibitor, single point] | 
O=c1[nH]cnc2nc(-c3ccccc3)c(-c3ccccc3)nc12 | active: 2.91 µM | 
Cc1cc(C)c2c(=O)cc(C(=O)Nc3sc4c(c3C#N)CCCC4)oc2c1 | inconclusive [inhibitor, partial curve, poor fit] | 
Cc1ccc(Nc2nc(N)nc(CSC(=S)N3CCN(c4ccccc4)CC3)n2)cc1 | inconclusive [inhibitor, single point] | 
O=C(O)c1ccc(C(=O)O)c(C(=O)c2ccc(NC(=O)c3ccccc3)cc2)c1 | inactive | 
O=C(c1[nH]c(C(F)(F)F)nc1-c1ccccc1)N1CCN(c2ccncc2)CC1 | inactive | 
CC(=O)Oc1cccc(N2C(=O)C3C4C=CC(C4)C3C2=O)c1 (stereo unspecified) | inactive | 
Nc1nc(SCc2ccc(Cl)cc2)[nH]c(=O)c1-c1ccccc1 | inconclusive [inhibitor, single point] | 
CCn1c(SCC(=O)Nc2ccccc2)nc2ccccc2c1=O | inconclusive [inhibitor, single point] | 
CC1=C(c2ccc(C)cc2)S(=O)(=O)N(Cc2ccc(C(=O)NCc3ccccc3)cc2)C1=O | inconclusive [inhibitor, single point] | 
O=C(O)c1cccc(CN2C(=O)S/C(=C/c3cccc([N+](=O)[O-])c3)C2=O)c1 | inconclusive [inhibitor, single point] | 
CSc1nnc2c(n1)[nH]c1c(C)cccc12 | inconclusive [inhibitor, partial curve] | 

SMILES | Potency | activity change, negative = growth inhibition
CC(C)NCC1CCc2cc(CO)c([N+](=O)[O-])cc2N1 (stereo unspecified) | inactive | 
COc1cc(NC(=O)c2cccnc2)ccc1NC(=O)c1ccccc1Cl | inconclusive [inhibitor, single point] | 
CCOC(=O)[C@]12CCCC=C1N(Cc1ccc(Cl)cc1Cl)C(=O)[C@H](CC(=O)NCCC(C)C)C2 | active: 20.6 µM | 
CCC1Nc2ncnc(N3CCOCC3)c2N(Cc2ccc(Cl)cc2)C1=O (stereo unspecified) | inactive | 
Cc1ccc(N2CCN(S(=O)(=O)N(C)C)CC2)cc1C | inactive | 
COc1cc(C(=O)Nc2scc(-c3ccc(C)cc3)c2C(=O)O)cc(OC)c1OC | inactive | 
Cc1ccccc1C(=O)Nc1sc(C)c(C)c1C(=O)c1ccccc1 | inconclusive [inhibitor, single point] | 
COCc1nc2ccccc2n1Cc1ccc(Br)cc1 | inconclusive [inhibitor, partial curve, poor fit] | 
COc1ccc(C2C(C(=O)Nc3ccccn3)=C(C)Nc3ncnn32)c(OC)c1 (stereo unspecified) | inactive | 
CC(C)(C)OC(=O)N(Cc1ccccc1)Cc1ccccc1OCc1cccc(NC(=O)C2CC2)c1 | inconclusive [inhibitor, single point] | 
O=C(Nc1cccc(Cl)c1)Nc1cc(S(=O)(=O)N2CCCCC2)ccc1Cl | inconclusive [inhibitor, single point] | 
Cc1noc(C)c1S(=O)(=O)Nc1ccccc1Oc1ccccc1 | inconclusive [inhibitor, single point] | 
CC(=O)Nc1ccc(-c2ccnc3c2CC(C)(C(=O)Nc2cccc(OC(F)(F)F)c2)O3)cc1 (stereo unspecified) | active: 16.4 µM | 
CCCCn1c(N)c(N(CC(C)C)C(=O)c2cccc(S(=O)(=O)N3CC(C)OC(C)C3)c2)c(=O)[nH]c1=O (stereo unspecified) | inactive | 
Cc1cccc(C)c1NC(=O)C1c2ccccc2OCC(=O)N1CCc1ccccc1 (stereo unspecified) | inconclusive [inhibitor, single point] | 
COc1ccc(C2/C=C\CN(S(=O)(=O)c3ccc4ccccc4c3)CC(=O)N2Cc2ccc(F)cc2)cc1 (stereo unspecified) | inconclusive [inhibitor, single point] | 
Cc1[nH]c2ccccc2c1C(=O)CN1C(=O)NC2(CC(C)CC(C)(C)C2)C1=O (stereo unspecified) | inconclusive [inhibitor, single point] | 
O=C(Nc1cc(C(F)(F)F)ccc1Cl)c1noc2c1CCCCC2 | inconclusive [inhibitor, single point] | 
O=C(C(c1ccccc1)c1ccccc1)N1CC[C@@]2(O)CCCC[C@H]2C1 |  | inconclusive: -30.8% [inhibitor]
Oc1cccc(-c2sc3ccccc3c2-c2ccc(OCCN3CCCCC3)cc2)c1 | active: 11.6 µM | 
O=C(Nc1ccc(F)c(F)c1)c1cc(S(=O)(=O)N2CCc3ccccc32)ccc1F | active: 10.3 µM | 
CCOc1cc(/C=C2\SC(=O)N(c3ccc(O)cc3)C2=O)ccc1O | inconclusive [inhibitor, single point] | 
COc1ccc2c(c1)c(CC(=O)Nc1cccc(F)c1C)c(C)n2C(=O)c1ccc(Cl)cc1 | inactive | 

Reference: PubChem BioAssay AID686978 (National Center for Advancing Translational Sciences (NCATS), 2013)
